Experimental data: the RNAGym collection of RNA variant scans (doi:10.1093/nar/gkz1192)
Read counts are not given, so values of variants with three or more changes are uncertain.

B1: CPEB3 Ribozyme (parent)
chain: UAACAGGGGGCCACAGCAGAAGCGUUCACGUCGCAGCCCCUGUCAGAUUCUGGUGAAUCUGCGAAUUCUGCUGUAUAUCUC

Variants of: B1
Experiment: self-cleavage, relative activity (ratio to wild type); higher = more cleavage; in vitro, sequencing
Procedure, shortened: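 After error-prone PCR and barcoding, CPEB3 ribozyme mutant libraries were transcribed with T7 RNA polymerase at 37°C for 5 hours, then given 15 min with DNase I before an EDTA stop, and they cleaved during both steps. Reverse transcription with template switching preceded Illumina sequencing. Relative activity divides a variant's cleaved/total read fraction by the unmutated ribozyme's. At least 5 reads were required per variant, and three batches were averaged.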

Question: With C14U U67C U69C U74G as the variant, how does the self-cleavage read?
Answer: 0.09

Question: With C14U U69A U72A as the variant, how does the self-cleavage read?
Answer: 0.26

Question: Which self-cleavage does the source give for C14U U69C G73A here?
Answer: 1.1

Question: Which self-cleavage does the source give for C14U U72A C79A here?
Answer: 0.88

Question: Which self-cleavage does the source give for C14U U76G U80C here?
Answer: 1.23

Question: Which self-cleavage does the source give for A15C A18G A21G U60C U67A U76C here?
Answer: 0.02

Question: Which self-cleavage does the source give for A15C A18G A28U U51G U54C A56G here?
Answer: 0

Question: For A15C A18G A64G, which self-cleavage is on record?
Answer: 0.38

Question: Which self-cleavage does the source give for A15C A18G C29U U48G here?
Answer: 0.25

Question: With A15C A18G C34U U41C U43A U67C U69A as the variant, how does the self-cleavage read?
Answer: 0.04

Question: Which self-cleavage does the source give for A15C A18G U25C U41A A77U here?
Answer: 0.64

Question: With A15C A18G U41A U48C U60C as the variant, how does the self-cleavage read?
Answer: 0.35

Question: Which self-cleavage does the source give for A15C A18U U66C here?
Answer: 0.12

Question: For A15C A20G A28U U48C U49C U76A, which self-cleavage is on record?
Answer: 0.06

Question: With A15C A20G A35G A56G A64G A77U as the variant, how does the self-cleavage read?
Answer: 1.22

Question: With A15C A20G A45G C71U as the variant, how does the self-cleavage read?
Answer: 0.38

Question: With A15C A20G A45U as the variant, how does the self-cleavage read?
Answer: 0.39

Question: With A15C A20G C23U A56G A57G A65G as the variant, how does the self-cleavage read?
Answer: 0.09

Question: With A15C A20G C29G U51C as the variant, how does the self-cleavage read?
Answer: 0.25

Question: With A15C A20G C29U A45C C79U as the variant, how does the self-cleavage read?
Answer: 0.07

Question: Which self-cleavage does the source give for A15C A20G C37U U67C C68A A75G here?
Answer: 0.09

Question: With A15C A20G C39U as the variant, how does the self-cleavage read?
Answer: 0.5

Question: With A15C A20G U25A U49C U80C as the variant, how does the self-cleavage read?
Answer: 0.44

Question: Which self-cleavage does the source give for A15C A20G U25C A57G here?
Answer: 0.49

Question: Which self-cleavage does the source give for A15C A20G U25C U54A A56C U69C here?
Answer: 0.04

Question: For A15C A20G U43C, which self-cleavage is on record?
Answer: 0.46

Question: With A15C A20U A45U U51A A57U A65G U67C as the variant, how does the self-cleavage read?
Answer: 0.04

Question: For A15C A21C A45G, which self-cleavage is on record?
Answer: 0.17

Question: Which self-cleavage does the source give for A15C A21G A56G here?
Answer: 0.35

Question: For A15C A21G A56G U66C, which self-cleavage is on record?
Answer: 0.8

Question: For A15C A21G C39G U78G, which self-cleavage is on record?
Answer: 0.08

Question: For A15C A21G G24A A28C U54C A56G U74C, which self-cleavage is on record?
Answer: 0.03

Question: Which self-cleavage does the source give for A15C A21G G24U U54C U72A U78C here?
Answer: 0.05

Question: With A15C A21G U41A C50A as the variant, how does the self-cleavage read?
Answer: 0.08

Question: For A15C A21G U41A U60C U67A U76C, which self-cleavage is on record?
Answer: 0.07

Question: For A15C A21G U43A, which self-cleavage is on record?
Answer: 0.51

Question: With A15C A21G U58C U67G U69A U78C as the variant, how does the self-cleavage read?
Answer: 0

Question: Which self-cleavage does the source give for A15C A21G U60C here?
Answer: 0.11

Question: Which self-cleavage does the source give for A15C A21U U25C U66C U74C here?
Answer: 0.07

Question: With A15C A21U U80A as the variant, how does the self-cleavage read?
Answer: 0.56

Question: With A15C A28C A35C U41C U72A as the variant, how does the self-cleavage read?
Answer: 0.12

Question: With A15C A28U C37A U49C G52C U80C as the variant, how does the self-cleavage read?
Answer: 0.08

Question: With A15C A28U U48C U76A as the variant, how does the self-cleavage read?
Answer: 0.41

Question: For A15C A28U U51C U67C, which self-cleavage is on record?
Answer: 0.11

Question: For A15C A28U U78C, which self-cleavage is on record?
Answer: 0.59

Question: Which self-cleavage does the source give for A15C A35C C39G U74C here?
Answer: 0.54

Question: For A15C A35G A45G U51A A64G, which self-cleavage is on record?
Answer: 1.08

Question: Which self-cleavage does the source give for A15C A35G A45U G53U A77U U78A here?
Answer: 0.77

Question: For A15C A35G U41C U69A, which self-cleavage is on record?
Answer: 0.71

Question: With A15C A35G U43A A64G U76A as the variant, how does the self-cleavage read?
Answer: 1.31

Question: With A15C A35G U43A U76A as the variant, how does the self-cleavage read?
Answer: 1.18

Question: Which self-cleavage does the source give for A15C A35G U43C U66C U69A here?
Answer: 0.14

Question: Which self-cleavage does the source give for A15C A35U U60A here?
Answer: 0.11

Question: With A15C A35U U72C as the variant, how does the self-cleavage read?
Answer: 0.91

Question: For A15C A45G U60C, which self-cleavage is on record?
Answer: 0.97

Question: With A15C A47G A56G U74C A75U as the variant, how does the self-cleavage read?
Answer: 1.14

Question: For A15C A47U U51A U66C, which self-cleavage is on record?
Answer: 0.2

Question: With A15C A47U U51C U66C U67A as the variant, how does the self-cleavage read?
Answer: 0.13

Question: Which self-cleavage does the source give for A15C A47U U54A A57U G73A here?
Answer: 1

Question: With A15C A56G A57U as the variant, how does the self-cleavage read?
Answer: 0.18

Question: For A15C A56G A75U, which self-cleavage is on record?
Answer: 1.04

Question: Which self-cleavage does the source give for A15C C17G C27U C32U U43C U72C here?
Answer: 0.09

Question: For A15C C17U A45G A64G, which self-cleavage is on record?
Answer: 0.24

Question: Which self-cleavage does the source give for A15C C17U C37G U43A here?
Answer: 0.28

Question: With A15C C29G U51C as the variant, how does the self-cleavage read?
Answer: 0.23

Question: For A15C C29U U48C U69C, which self-cleavage is on record?
Answer: 0.13

Question: With A15C C32G U41A G55A G61A A65G U72C as the variant, how does the self-cleavage read?
Answer: 0.11

Question: With A15C C32U U41A U80A as the variant, how does the self-cleavage read?
Answer: 0.09

Question: For A15C C32U U54G A75U, which self-cleavage is on record?
Answer: 0.15

Question: For A15C C34G C50A A65C U69C, which self-cleavage is on record?
Answer: 0.12

Question: For A15C C37A U49C, which self-cleavage is on record?
Answer: 0.25

Question: For A15C C37U U41C U43C A45U U48C U72A, which self-cleavage is on record?
Answer: 0.07

Question: With A15C C38U U49C as the variant, how does the self-cleavage read?
Answer: 0.24

Question: For A15C C38U U58C A77U, which self-cleavage is on record?
Answer: 0.32

Question: For A15C C40A U69A, which self-cleavage is on record?
Answer: 0.18

Question: For A15C G16A C17U, which self-cleavage is on record?
Answer: 0.12

Question: For A15C G16U G33A U41C U43C U72C, which self-cleavage is on record?
Answer: 0.04

Question: With A15C G19A A20U A47G A57U U72C as the variant, how does the self-cleavage read?
Answer: 0.01

Question: For A15C G19A G55C U69C, which self-cleavage is on record?
Answer: 0.09

Question: For A15C G22U U26C G63U A64G U78C, which self-cleavage is on record?
Answer: 0.12

Question: Which self-cleavage does the source give for A15C G24C U26C G46U A65G U66C here?
Answer: 0.05

Question: For A15C G36U A47G, which self-cleavage is on record?
Answer: 0.08

Question: Which self-cleavage does the source give for A15C G42A A57G A77G here?
Answer: 0.08

Question: With A15C U25C A57U U60C U80A as the variant, how does the self-cleavage read?
Answer: 0.17
